Source: the supplement of paper PMC3724861
Some of the results follow.

system: T1, Caupolican (Caup) homeodomain DNA-binding domain; experiment: PBM E-score (8-mer, recovered from the published 9-mer minima) (E-score (dimensionless, -0.5 to 0.5)); Drosophila protein; higher = stronger relative binding preference, active = 0.31 or more
T1 sequence: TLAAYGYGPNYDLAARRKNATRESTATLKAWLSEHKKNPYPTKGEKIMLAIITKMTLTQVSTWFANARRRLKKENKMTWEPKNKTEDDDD
Protocol: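 Protein binding microarray (PBM): in vitro transcribed/translated Caupolican (Caup) homeodomain DNA-binding domain (residues 214-303) applied at 100 nM to a universal 8-mer PBM array (Agilent AMADID 015681). The 8-mer enrichment score (E-score, range -0.5 to 0.5) was computed, and each 9-mer score is the minimum E-score of its two constituent 8-mers. The E-score is the same for a 9-mer and its reverse complement; 0.31 is the stated binding threshold.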

Sequence | PBM E-score
AACGGTGT | inactive: 0.196
AACTAATG | inactive: 0.168
ACCATTAA | inactive: 0.182
ATTCCTTA | inactive: 0.0011
AACCCAGA | inactive: -0.075
TACGTCAA | inactive: 0.0652
CCTGAGCG | inactive: -0.215
ACCCTAAG | inactive: -0.0548
CATTCATA | inactive: 0.179
GCGACCAA | inactive: -0.0185
CGCGTAAA | inactive: -0.00534
AACGGCAA | inactive: 0.024
CTAGGGCA | inactive: -0.195
AGTCTCGC | inactive: -0.0637
AAAGCCTA | inactive: -0.0407
TCTCTTCA | inactive: -0.0622
TAGGTGAA | inactive: 0.0435
CTCCCCAG | inactive: -0.17
ATGTGTTA | active: ≥ 0.323
ATGCATCC | inactive: -0.0458
GAATCCTA | inactive: 0.0166
CTTGGTGC | inactive: -0.0256
CCCGGTAC | inactive: -0.064
CCTGCACA | inactive: -0.0308
ATGCATAA | inactive: 0.118

Sequence | PBM E-score
AGCCAAAA | inactive: -0.00265
CACAATAC | inactive: 0.11
ACGTCGTC | inactive: 0.0651
TGCGTCCA | inactive: -0.0458
AGTTCGTA | inactive: 0.0806
CTTGGTTC | inactive: 0.0216
CAAACATG | active: 0.391
ACCTTGGC | inactive: -0.108
CTATGGAA | inactive: 0.0634
CTGGAAAG | inactive: -0.131
ACATATCA | active: ≥ 0.321
CGAGTGGC | inactive: -0.181
CTTCCGCA | inactive: -0.0665
CGTTGTGA | inactive: 0.0411
TCCCTACA | inactive: 0.0901
AAGCCGGG | inactive: -0.179
AAAGGGGC | inactive: -0.178
GAATACCA | inactive: 0.136
GTAGGAAC | inactive: 0.0218
TTAACCAA | inactive: 0.14
GAAACGCA | inactive: -0.105
CTCAGGGC | inactive: -0.162
CTGCCTCC | inactive: -0.195
CCCAAGTC | inactive: -0.146
CACAGAAA | inactive: -0.00373

Sequence | PBM E-score
CGGCATAA | inactive: -0.0258
GACTATGA | inactive: 0.0441
CCTCTCAC | inactive: -0.093
ATCTTCAT | inactive: 0.002
CTTGTTTC | ≥ 0.302
GATGAACA | inactive: 0.196
AACGACAC | inactive: 0.291
ATCCGGAA | ≥ 0.0536
ATAGTCCC | inactive: -0.085
AACTGCGT | ≥ 0.002
ACATGGAT | active: 0.374
AAAATTAT | inactive: 0.163
CATCTTTA | inactive: 0.0974
ACCCTCTA | ≥ -0.0428
GCACTAGA | inactive: -0.106
AACGATAG | inactive: 0.0006
ATACGTTA | inactive: 0.115
ATCAGAGC | inactive: -0.0433
CTAGCCCC | inactive: -0.204
CAAGCGAC | inactive: 0.0812
ACTCATAG | inactive: 0.119
GCTTAGCA | inactive: -0.0447
CCTCGGAA | inactive: -0.071
CCTCGTGC | inactive: -0.153
CTCAATAA | inactive: -0.0584

Sequence | PBM E-score
TCAACACA | inactive: 0.271
AGTCCAAT | inactive: 0.0121
AAAGGGTC | inactive: -0.129
AGGGCACG | inactive: -0.108
GCTATCGA | inactive: -0.161
GCGCGGCA | inactive: -0.271
TACCGTAA | inactive: 0.084
CTCCTCAC | inactive: -0.136
GTAGTCCA | inactive: 0.0163
TGTCTAAA | inactive: 0.174
CGTCCAAG | inactive: -0.214
ATCTTATC | inactive: 0.0685
GGGCGCTA | inactive: -0.255
ATCCCAAG | inactive: -0.147
ACCCACAC | inactive: -0.144
CGCAGCAA | inactive: -0.107
AAATTGCT | inactive: 0.118
AATCGTTC | inactive: 0.121
ATCTGAAG | inactive: -0.0451
AGTTGATG | inactive: 0.149
CCTGGGTC | inactive: -0.22
AAGTACAG | inactive: 0.204
GGAAGGAC | inactive: -0.0901
GAGTTAAA | inactive: 0.00793
GACGCAGA | inactive: -0.166

Sequence | PBM E-score
GAGGGCGC | inactive: -0.287
GGAGAGCA | inactive: 0.0394
CATAGATG | inactive: 0.0521
CAATGCAC | inactive: 0.146
CAGTAATA | inactive: 0.167
CGAGCGGA | inactive: -0.115
AATATGCC | inactive: -0.0171
CTTGGTAC | inactive: 0.16
CTGATTAA | inactive: 0.162
GGGACTAC | inactive: -0.0163
CATTAATG | inactive: 0.209
AGAGGCTC | inactive: -0.211
GAGATTAA | inactive: 0.0203
ATTTGTTA | inactive: 0.219
ACGGGCAG | inactive: -0.0299
CCACAGTA | inactive: 0.0797
GTATTATA | inactive: 0.176
ATGAGTTC | inactive: 0.0362
ATAACCGG | inactive: -0.0147
AGACTATG | inactive: 0.0851
CTGCAGTC | inactive: -0.0794
TCCGACCA | inactive: 0.0363
TATCAGAA | inactive: 0.0677
ATAATTGG | inactive: 0.0174
ATATGAAA | inactive: 0.119

Sequence | PBM E-score
GAGAAAAC | inactive: -0.0577
AAATTACC | inactive: 0.0881
AGAGTAGC | inactive: -0.0886
CTCAGAGC | inactive: -0.141
GAAAACGA | inactive: 0.0287
TGGTAACA | inactive: 0.249
AAAAAAAT | inactive: 0.0513
GGATAGGA | inactive: -0.00668
ACTTGGAT | ≥ 0.147
TGAGTAAA | inactive: 0.0222
CGCGCCTA | inactive: -0.133
GAGCAGAA | inactive: -0.0539
ATCCGTAA | inactive: 0.0355
CAGGAATG | inactive: 0.11
CGTGGAGC | inactive: -0.198
TTAAATAA | inactive: 0.103
TCGCGCAA | ≥ 0.0408
ACAAGGCG | inactive: 0.154
GAAATGGA | inactive: -0.0329
ACTATGCT | ≥ 0.141
AGTTGTCG | inactive: 0.235
AACACATT | inactive: 0.264
CAACACTA | inactive: 0.177
AGGCGGCA | inactive: -0.223
CCTAAGAC | inactive: -0.0795

Sequence | PBM E-score
GGCAACCC | inactive: -0.192
CATGGTCG | inactive: 0.0771
AGATGTCG | inactive: 0.224
ACCCGCGA | inactive: -0.0509
AACTCGGG | inactive: -0.0964
ACACAGCA | inactive: 0.183
AGCGACTG | inactive: -0.0377
TAAATAGA | inactive: 0.0495
AAGACTGC | inactive: -0.0769
CATCGTCC | inactive: 0.0577
GCGGCCGA | inactive: -0.224
CAGGAGCA | inactive: -0.118
CGGTTTGA | inactive: -0.0374
ATTCTGAA | inactive: 0.0422
ATCACACG | ≥ 0.212
AAGTTTAG | inactive: -0.0117
CACCGCGC | inactive: -0.175
AGGGTTTG | inactive: 0.0185
CATGGTGC | inactive: -0.00637
GTCATTTA | inactive: 0.184
AGCCTCAG | inactive: -0.137
CCGAGCGG | inactive: -0.232
AGGAATCG | inactive: 0.0328
GGGCGGCA | inactive: -0.3
CTGAATCC | inactive: -0.0355

Sequence | PBM E-score
ACTTAGGG | inactive: -0.0599
AAAGATTG | inactive: 0.00127
CGGTTTGC | inactive: -0.0682
ATTACACA | active: ≥ 0.332
GAGTTCAA | ≥ 0.0481
CCACATGC | inactive: 0.0879
GGATGAGA | inactive: -0.0395
CGTGGTGC | inactive: -0.121
ATTGGTGA | ≥ 0.104
ACCGCGAT | inactive: -0.0575
AGGCGATC | inactive: -0.101
AAGATCCC | inactive: -0.0141
ACCAGAGT | inactive: 0.0242
TCTTCTCA | inactive: -0.081
CGCGGGAG | inactive: -0.278
ATTAAAAC | inactive: 0.195
GCGCCAAC | inactive: -0.0963
CACTTATG | inactive: 0.066
GACCCAGA | inactive: -0.134
CCCGAAGC | inactive: -0.126
AGAGTCCT | inactive: -0.0833
GATCCTGC | inactive: -0.0562
GCCGGCGC | inactive: -0.188
CTGGTTCC | inactive: -0.0617
CTTTTTTC | inactive: -0.0534

Sequence | PBM E-score
CCGATGAA | inactive: -0.0817
TAGCCCGA | inactive: -0.149
AGTGTACC | inactive: 0.207
GTGGCACA | inactive: -0.0183
AGGTTGGC | inactive: -0.14
ATGCGCCG | inactive: -0.109
AGTGCGCA | inactive: -0.0732
CAGGAGCC | inactive: -0.183
ACTACGAT | inactive: 0.0836
CACATGTC | active: 0.387
ATTGTCGA | inactive: 0.127
ACATAAGA | inactive: 0.232
AATGCAGG | inactive: 0.03
TGATTCCA | inactive: 0.0342
ATGCGCTC | inactive: -0.0553
ACACCTTA | inactive: 0.128
AGATTCTC | inactive: -0.0265
GCACTTGA | inactive: -0.00239
CGTATCAA | inactive: 0.0341
CTGATCAG | inactive: 0.0411
AACAATAG | inactive: 0.0973
ATCACGAC | inactive: 0.113
GACAGACC | inactive: 0.0467
CAATTCCG | inactive: -0.0737
